# About 2,200 (0.71%) of roughly 310,000 compounds showed an effect of 50% or more. The effect is printed as a negative number. The list shows a part of the results.
# Molecular target: human ether-à-go-go-related gene (hERG) potassium channel (human, UniProt Q12809)
# Assay: primary screen, population patch clamp on CHO cells stably expressing hERG
# Chain of human ether-à-go-go-related gene (hERG) potassium channel (Q12809 whole entry, looked up): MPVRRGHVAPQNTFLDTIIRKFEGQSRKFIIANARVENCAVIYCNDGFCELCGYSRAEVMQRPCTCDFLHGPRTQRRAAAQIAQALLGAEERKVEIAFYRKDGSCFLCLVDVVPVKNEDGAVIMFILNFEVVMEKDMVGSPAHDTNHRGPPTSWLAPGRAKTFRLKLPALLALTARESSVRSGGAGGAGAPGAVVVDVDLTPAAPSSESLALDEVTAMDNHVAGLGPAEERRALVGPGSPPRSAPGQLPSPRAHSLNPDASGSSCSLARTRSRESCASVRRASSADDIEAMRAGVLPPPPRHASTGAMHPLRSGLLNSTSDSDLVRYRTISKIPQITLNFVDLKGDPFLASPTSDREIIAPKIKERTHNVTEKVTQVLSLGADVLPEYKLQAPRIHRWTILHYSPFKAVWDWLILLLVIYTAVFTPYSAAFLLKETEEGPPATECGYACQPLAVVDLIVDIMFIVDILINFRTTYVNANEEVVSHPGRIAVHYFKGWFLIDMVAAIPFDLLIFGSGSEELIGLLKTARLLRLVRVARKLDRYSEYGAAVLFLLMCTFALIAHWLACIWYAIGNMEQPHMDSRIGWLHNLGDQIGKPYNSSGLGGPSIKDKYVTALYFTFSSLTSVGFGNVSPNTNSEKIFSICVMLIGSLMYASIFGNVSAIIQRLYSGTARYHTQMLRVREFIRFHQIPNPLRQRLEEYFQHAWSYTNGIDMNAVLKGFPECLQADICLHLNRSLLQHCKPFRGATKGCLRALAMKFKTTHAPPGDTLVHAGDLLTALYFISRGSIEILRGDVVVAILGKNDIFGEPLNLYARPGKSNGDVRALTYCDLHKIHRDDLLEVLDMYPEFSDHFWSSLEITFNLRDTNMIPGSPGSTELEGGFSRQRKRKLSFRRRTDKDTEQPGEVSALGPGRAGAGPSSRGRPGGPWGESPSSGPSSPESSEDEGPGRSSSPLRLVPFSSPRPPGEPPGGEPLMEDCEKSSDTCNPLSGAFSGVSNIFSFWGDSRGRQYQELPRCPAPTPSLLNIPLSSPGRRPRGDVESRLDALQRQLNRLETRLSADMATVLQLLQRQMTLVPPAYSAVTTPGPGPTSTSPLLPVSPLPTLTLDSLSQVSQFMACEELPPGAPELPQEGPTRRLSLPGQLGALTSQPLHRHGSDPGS
row,SMILES,"hERG current change (%, negative = inhibition) at 1uM"
1,Cc1cccn2c(=O)c(/C=C(\C#N)C(=O)NC3CCS(=O)(=O)C3)c(Oc3ccccc3Cl)nc12 (centres unmarked),15.1%
2,CCOC(=O)C1CN(c2cc3c(cc2F)c(=O)c(C(=O)O)cn3CC)OC1C(=O)OCC (centres unmarked),2.5%
3,CC(Sc1nnnn1C)C(=O)Nc1cc(S(=O)(=O)N2CCCCC2)ccc1Cl (centres unmarked),5.21%
4,CC1CN(C(=O)CCC(=O)NCCCN2C(C)CCCC2C)c2ccccc2O1 (centres unmarked),-3.47%
5,Cc1ccc(N=C2CCCCCN2C)c(C#N)c1.Cl,-4.76%
6,O=C(NCCCCCCNC(=O)c1ccc(Br)s1)c1ccc(Br)s1,4.84%
7,O=Cc1cnc(N2CCN(c3ccccc3)CC2)s1,7.29%
8,COc1ccc(-c2cc(C3CC3)nc(N)c2C#N)cc1,15.2%
9,CCc1c(C)nc2[nH]nc(NC(=O)C(F)(F)F)n2c1=O,15%
10,COc1ccc(CCNC(=O)CC2SC(=NCc3ccccc3OC)NC2=O)cc1 (centres unmarked),-5.3%
11,CC(=O)Nc1ccc2c(c1)ncn2-c1ccccc1,13.8%
12,COc1ccccc1CCC(=O)NNC(=O)c1ccccc1,9.45%
13,Cn1c(CNS(=O)(=O)c2ccc(Br)cc2)n[nH]c1=S,-46.9%
14,Cc1c(C(=O)NCc2ccc3c(c2)OCO3)oc2ccc(Br)cc12,10.8%
15,CCC1CCCCN1C(=O)Cn1c(=O)oc2ccccc21 (centres unmarked),5.94%
16,COc1ccc(/C(O)=C2/C(=O)C(=O)N(c3nc(C)c(C)s3)C2c2ccco2)cc1 (centres unmarked),12.8%
17,CCc1cc2cc3c(cc2nc1SCC(=O)Nc1cc(OC)c(OC)cc1C(=O)O)OCO3,-0.115%
18,C[C@@H]1O[C@@H](OC2C(O)C(OCCc3ccc(O)c(O)c3)OC(CO)C2OC(=O)/C=C/c2ccc(O)c(O)c2)[C@H](O)[C@H](O)[C@H]1O (some centres unmarked),14.1%
19,O=C(O)c1ccc2c3c(cccc13)C(=O)N(c1cccc3ccccc13)C2=O,20.9%

row,SMILES,"hERG current change (%, negative = inhibition) at 1uM"
1,COc1cc(S(=O)(=O)N2CCOCC2)ccc1NC(=O)CN1c2cccc3cccc(c23)S1(=O)=O,-3.69%
2,COc1ccc(CCNC(=O)c2sc3cc(C)ccc3c2Cl)cc1,1.97%
3,Cn1cc(Br)c(C(=O)NNC(=O)c2cccc(Br)c2)n1,5.87%
4,COc1cc(C2NC(=O)NC(C)=C2C(=O)OC2CCCC(C)C2)cc(Br)c1O (centres unmarked),6.78%
5,COc1cc(/C=N/Nc2nncn2N)ccc1OCc1c(C)no[n+]1[O-],6.95%
6,CNC(=O)C1=C(C)Nc2nc3ccccc3n2C1c1cccc(OC)c1 (centres unmarked),-2.68%
7,COCCNC(=O)c1ccccc1-c1ccccc1C(=O)O,-1.37%
8,COc1ccc(N(CC(=O)NCc2ccc(F)cc2)C(=O)Cn2nnc(-c3ccc(C)o3)n2)cc1OC,8.09%
9,O=[N+]([O-])c1cc(Cl)ccc1N1CCCCC1,13.1%
10,CCOC(=O)c1sc(=S)n(Cc2ccccc2)c1C,12.2%
11,COC(=O)c1sc(N)c(C(=O)OC)c1COC(=O)CNS(=O)(=O)c1ccc(C)c(C)c1,11.4%
12,CC1CCCN(C(=O)C(=O)Nc2ccc3nc4n(c(=O)c3c2)CCCCC4)C1 (centres unmarked),9.21%
13,COc1ccc(/C=N/NC(=O)C(=O)N2CCN(c3ccccc3OC)CC2)cc1,2.46%
14,Cc1ccc(C)c(C(=O)CCC(=O)OCn2nnc3ccccc3c2=O)c1,12.2%
15,COc1ccc(CC(=O)N2N=C(C)CC2(O)C(F)(F)F)cc1OC (centres unmarked),10.2%
16,CCCCN(C(=O)C1=NN(c2cc(C)ccc2C)C(=O)CC1)c1c(N)n(CCC)c(=O)[nH]c1=O,3.7%
17,Cc1ccc(C)c(OCC(=O)NNC(=O)C2CCC2)c1,23.4%
18,COc1ccc(NC(=O)C2CCCN(S(=O)(=O)c3cccc4nonc34)C2)c(OC)c1 (centres unmarked),5.95%
19,CCCC(=O)N1CCN(c2ccc(NC(=O)c3cccs3)cc2)CC1,0.426%

row,SMILES,"hERG current change (%, negative = inhibition) at 1uM"
1,Cc1ccc(N(CC(=O)N/N=C/c2cccc(Br)c2)S(C)(=O)=O)cc1,14.2%
2,CSc1ccccc1Nc1ncnc(N)n1,5.08%
3,Cc1nn(-c2cccc(Cl)c2)c2nc(-c3ccco3)cc(C(=O)O)c12,19.7%
4,Cc1cccc(NC(=O)Nc2cccc(C)n2)n1,13.8%
5,CCOc1ccc(N(CC(=O)Nc2cccc(C)c2C)S(=O)(=O)c2c(C)[nH]c(=O)[nH]c2=O)cc1,9.87%
6,CCc1ccc(CN2CC(C(=O)O)CC2=O)cc1 (centres unmarked),8.08%
7,COc1cc(CNCc2ccccn2)ccc1OCc1cccc(Cl)c1.Cl,-22.3%
8,CCCCn1c(=O)[nH]c(=O)c2c1nc(-c1ccc3ccccc3c1)n2CC,1.39%
9,Cn1nc(C(F)(F)F)c2cc(C(=O)Nc3ccc(C(F)(F)F)cc3)sc21,14.1%
10,COc1ccc(C2C(CC(=O)O)=C(O)C(=O)N2c2ccccc2)cc1 (centres unmarked),12.4%
11,ClCc1nnc(-c2ccccc2)o1,15.5%
12,Cc1ccnc(NS(=O)(=O)c2ccc(NC(=O)CCc3ccccc3)cc2)n1,11.8%
13,CC(C)c1ccccc1NC(=S)NCC1(N(C)C)CCCCC1,0.479%
14,O=C(CN1CCN(c2ccc(Cl)cc2)CC1)Nc1cccc(F)c1,11.4%
15,O=[N+]([O-])c1ccc(NCc2ccccn2)nc1,3.7%
16,COc1cc2c(cc1OC)CN(CCOc1ccc(Br)cc1)CC2,-12.7%
17,CCCCNC(=O)c1cc2nc3c(c(C(F)(F)F)n2n1)CCc1ccccc1-3,10.9%
18,N#Cc1c(N)nc(SCc2ccncc2)c(C#N)c1-c1cccs1,-1.21%

# Reference: publication PMC4336329 (PLoS ONE, 2015)
